Test results: the antibiotic and cytotoxicity screens of Wong et al. (2023)
The list shows a part of the results.

What was measured:
[1] = tested on: HSkMC (human skeletal muscle cells); experiment: cytotoxicity call (relative viability < 0.9); conditions: 10 µM
[2] = tested on: HepG2; experiment: cytotoxicity call (relative viability < 0.9); conditions: 10 µM
[3] = tested on: S. aureus RN4220; experiment: growth inhibition call (relative growth <= 0.2); conditions: 50 µM

SMILES | cytotoxicity call [1] | cytotoxicity call [2] | growth inhibition call [3]
COc1ccc(NC(=O)N(C)C[C@@H]2OCCCC[C@H](C)Oc3ccc(NC(=O)Nc4c(C)noc4C)cc3C(=O)N([C@@H](C)CO)C[C@@H]2C)cc1 | inactive | inactive | inactive
O=C1O[C@H](c2ccccc2)[C@H](c2ccccc2)N2[C@H]1[C@@H](C(=O)O)[C@]1(C(=O)Nc3ccc(Cl)cc31)[C@H]2c1ccc(F)cc1 | inactive | inactive | active
C[C@H](CO)N1C[C@H](C)[C@H](CN(C)S(C)(=O)=O)Oc2cc(-c3ccc(F)cc3)ccc2S1(=O)=O | inactive | inactive | inactive
O=C(NCc1nc2ccccc2[nH]1)C1=C[C@H](c2csc3ccccc23)C[C@H](OCc2ccc(CO)cc2)O1 | inactive | inactive | inactive
COCC#Cc1ccc2c(c1)O[C@@H](CN(C)S(=O)(=O)c1ccc(OC)cc1)[C@H](C)CN([C@@H](C)CO)S2(=O)=O | inactive | inactive | inactive
CO[C@H]1CN(C)C(=O)c2cc(NS(=O)(=O)c3cn(C)cn3)ccc2OC[C@@H](C)N(Cc2cccc(F)c2)C[C@@H]1C | inactive | inactive | inactive
CC(C)CC#Cc1cnc2c(c1)C(=O)N([C@@H](C)CO)C[C@H](C)[C@H](CN(C)C(=O)c1ccc3c(c1)OCO3)O2 | inactive | inactive | inactive
CC(C)(C)NCC(O)COc1ccccc1C1CCCC1.O=S(=O)(O)O (stereo unspecified) | inactive | active | inactive
O=C(NCc1csnn1)c1csnn1 | inactive | inactive | inactive
OC[C@H]1O[C@@H](n2cnc3c(NCc4ccco4)ncnc32)[C@H](O)[C@@H]1O | inactive | active | inactive
C[C@@H]1CN([C@@H](C)CO)C(=O)c2cccc(NC(=O)C3CC3)c2O[C@@H]1CN(C)S(=O)(=O)c1ccc(F)cc1 | inactive | inactive | inactive
C/C=C/c1ccc2c(c1)O[C@H](CN(C)Cc1ccc(C(=O)O)cc1)[C@H](C)CN([C@H](C)CO)S2(=O)=O | inactive | inactive | inactive
COc1ccc(NC(=O)N(C)C[C@@H]2OCCCC[C@@H](C)Oc3ccc(NS(=O)(=O)c4ccccc4)cc3C(=O)N([C@@H](C)CO)C[C@H]2C)cc1 | inactive | inactive | inactive
N[C@H](CO)C(=O)O | inactive | inactive | inactive
Cc1ccc(S(=O)(=O)N(C)C[C@H]2OCCCC[C@@H](C)Oc3ccc(NC(=O)Nc4ccc5c(c4)OCO5)cc3C(=O)N([C@@H](C)CO)C[C@H]2C)cc1 | inactive | inactive | inactive
C[C@H](CO)N1C[C@H](C)[C@@H](CN(C)C(=O)Nc2ccc3c(c2)OCO3)Oc2ccc(NC(=O)Cn3cnnn3)cc2C1=O | inactive | inactive | inactive
COC(=O)C=CC(=O)OC | inactive | active | inactive
C[C@H](CO)N1C[C@H](C)[C@@H](CN(C)S(=O)(=O)c2ccc(F)cc2)Oc2ncc(C#CC3(O)CCCC3)cc2C1=O | inactive | inactive | inactive
Cc1ccc(-n2nc(C(C)(C)C)cc2NC(=O)Nc2ccc(OCCN3CCOCC3)c3ccccc23)cc1 | active | active | inactive
COc1nonc1NC(C)=O | inactive | inactive | inactive
C=C1C(=O)C(O)[C@H]2O[C@H]2C1=O (stereo partly specified) | inactive | inactive | inactive
COc1ccc(S(=O)(=O)Nc2cccc3c2O[C@@H](CN(C)CC2CC2)[C@H](C)CN([C@H](C)CO)C3=O)cc1 | inactive | inactive | inactive
Cc1ccc(S(=O)(=O)N(C)C[C@@H]2Oc3ccc(NC(=O)Nc4ccc(C(F)(F)F)cc4)cc3CC(=O)N([C@@H](C)CO)C[C@@H]2C)cc1 | active | active | inactive
C[C@@H]1CN([C@@H](C)CO)C(=O)c2cc(NC(=O)CCC(F)(F)F)ccc2O[C@@H](C)CCCCO[C@@H]1CN(C)Cc1ccccc1 | inactive | inactive | inactive
C[C@@H]1CN([C@@H](C)CO)C(=O)c2ccccc2-c2ccccc2CO[C@@H]1CN(C)Cc1ccc(Oc2ccccc2)cc1 | inactive | inactive | inactive
c1cc([C@@H]2CNCCN2)[nH]n1 | inactive | inactive | inactive
C[C@H]1CCCCO[C@H](CN(C)Cc2ccc(C(F)(F)F)cc2)[C@@H](C)CN([C@@H](C)CO)C(=O)c2cc(NC(=O)c3ccccc3)ccc2O1 | inactive | inactive | inactive
